# Some of the results follow. At the low end of the ranking, values are background and their order means little.
# Biological target: GST-SBP-SLBP (stem-loop binding protein) (UniProt Q14493)
# Assay: targeted RNA Bind-n-Seq;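 note: DESeq read counts versus GST-SBP nonspecific binding control pulldown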
# Conditions: RBNS binding buffer: 25 mM Tris pH 7.5, 150 mM KCl, 3 mM MgCl2, 0.1% Tween, 0.5 mg/mL BSA, 1 mM DTT; 27 nM protein, 750 pM RNA pool; temperature not stated; high values mean tight binding
row,Sequence,binding signal (log2 fold change)
1,GGUCACGUCUCAAUCAACUCUUCCUCCAGGGAAAUCCCUGGUAAUGUCAACAGCUCGCAGUCAAG,0.0479
2,GGUCACGUCUCAAUCAACUCUAUUCCAGGAGUUUACUCCUGUAAAUUCAACAGCUCGCAGUCAAG,-0.128
3,GGUCACGUCUCAAUCAACUCAUACGAGGGGGGGAAAACCCCUUUACCCUCUUCAUCAACAGCUCGCAGUCAAG,-0.118
4,GGUCACGUCUCAAUCAACUCUACUCCAGGAGUUUCCUCCUGUAAAUUCAACAGCUCGCAGUCAAG,0.0186
5,GGUCACGUCUCAAUCAACUCCACAGAGGGGGGGAAAACCCCUUUACCCUCAAAUUCAACAGCUCGCAGUCAAG,-0.399
6,GGUCACGUCUCAAUCAACUCUAUCUCAGGAGUUUACUCCUGCUAUUUCAACAGCUCGCAGUCAAG,-0.0969
7,GGUCACGUCUCAAUCAACUCAAUCCCCAGGGAAAGCCCUGGCAAACUCAACAGCUCGCAGUCAAG,0.159
8,GGUCACGUCUCAAUCAACUCCCCGGAGGGGGGGAAAACCCCUUUACCCUCACUAUCAACAGCUCGCAGUCAAG,-0.282
9,GGUCACGUCUCAAUCAACUCUUCGUCAGGAGUUUCCUCCUGCUAUUUCAACAGCUCGCAGUCAAG,-0.0998
10,GGUCACGUCUCAAUCAACUCAAUUUCAGGAGUUUACUCCUGCAUUCUCAACAGCUCGCAGUCAAG,-0.0242
11,GGUCACGUCUCAAUCAACUCUUUCCCCAGGGAAACCCCUGGUUUAUUCAACAGCUCGCAGUCAAG,-0.00629
12,GGUCACGUCUCAAUCAACUCCACGGAGGGGGGGAAAACCCCUUUACCCUCAUAUUCAACAGCUCGCAGUCAAG,-0.00909
13,GGUCACGUCUCAAUCAACUCAUUCCCCAGGGAAAUCCCUGGUUUUCUCAACAGCUCGCAGUCAAG,0.0115
14,GGUCACGUCUCAAUCAACUCUUCUCCCAGGGAAAUCCCUGGCUAUCUCAACAGCUCGCAGUCAAG,0.0869
15,GGUCACGUCUCAAUCAACUCUUCCCCAGGAGUUUCCUCCUGCUAAUUCAACAGCUCGCAGUCAAG,0.09
16,GGUCACGUCUCAAUCAACUCUAUCGCAGGAGUUUCCUCCUGGUUUUUCAACAGCUCGCAGUCAAG,-0.0427
17,GGUCACGUCUCAAUCAACUCAUUUUCAGGAGUUUGCUCCUGUAUACUCAACAGCUCGCAGUCAAG,0.0737
18,GGUCACGUCUCAAUCAACUCUUCUCCAGGAGUUUUCUCCUGCAAAUUCAACAGCUCGCAGUCAAG,-0.0221
19,GGUCACGUCUCAAUCAACUCAAUCCCAGGAGUUUCCUCCUGCUAUUUCAACAGCUCGCAGUCAAG,0.166
20,GGUCACGUCUCAAUCAACUCAUUUUCCAGGGAAACCCCUGGUAUACUCAACAGCUCGCAGUCAAG,0.152
21,GGUCACGUCUCAAUCAACUCCCAAGAGGGGGGGAAAACCCCUUUGCCCUCAAAAUCAACAGCUCGCAGUCAAG,-0.299
22,GGUCACGUCUCAAUCAACUCUUUUCCCAGGGAAACCCCUGGUAUACUCAACAGCUCGCAGUCAAG,0.26
23,GGUCACGUCUCAAUCAACUCAAGUCCAGGAGUUUACUCCUGUUUAUUCAACAGCUCGCAGUCAAG,-0.0207
24,GGUCACGUCUCAAUCAACUCAACGGAGGGGGGGAAAACCCCUUUACCCUCACAUUCAACAGCUCGCAGUCAAG,-0.437

row,Sequence,binding signal (log2 fold change)
1,GGUCACGUCUCAAUCAACUCAAUCCCAGGAGUUUCCUCCUGUAUAGUCAACAGCUCGCAGUCAAG,0.177
2,GGUCACGUCUCAAUCAACUCCCCAGAGGGGGGGAAAACCCCUUUACCCUCCACAUCAACAGCUCGCAGUCAAG,0.235
3,GGUCACGUCUCAAUCAACUCUUCCCCCAGGGAAAGCCCUGGUUAUGUCAACAGCUCGCAGUCAAG,-0.0247
4,GGUCACGUCUCAAUCAACUCUCAAGAGGGGGGGAAAACCCCUUUACCCUCGAAAUCAACAGCUCGCAGUCAAG,0.0214
5,GGUCACGUCUCAAUCAACUCACAGGAGGGGGGGAAAACCCCUUUACCCUCACAAUCAACAGCUCGCAGUCAAG,-0.388
6,GGUCACGUCUCAAUCAACUCCUUCGAGGGGGGGAAAACCCCUUUACCCUCUUAAUCAACAGCUCGCAGUCAAG,0.305
7,GGUCACGUCUCAAUCAACUCCCCAGAGGGGGGGAAAACCCCUUUGCCCUCAUUCUCAACAGCUCGCAGUCAAG,-0.244
8,GGUCACGUCUCAAUCAACUCUAUCUCAGGAGUUUACUCCUGCUUACUCAACAGCUCGCAGUCAAG,-0.00203
9,GGUCACGUCUCAAUCAACUCUACUUCAGGAGUUUACUCCUGCAAACUCAACAGCUCGCAGUCAAG,-0.0527
10,GGUCACGUCUCAAUCAACUCACACGAGGGGGGGAAAACCCCUUUACCCUCAAACUCAACAGCUCGCAGUCAAG,0.265
11,GGUCACGUCUCAAUCAACUCAUCUUCCAGGGAAAUCCCUGGCUAACUCAACAGCUCGCAGUCAAG,-0.0405
12,GGUCACGUCUCAAUCAACUCUUCCCCCAGGGAAAGCCCUGGCUAUUUCAACAGCUCGCAGUCAAG,-0.00689
13,GGUCACGUCUCAAUCAACUCUUCCCCCAGGGAAACCCCUGGCAUUCUCAACAGCUCGCAGUCAAG,-0.124
14,GGUCACGUCUCAAUCAACUCCAAAGAGGGGGGGAAAACCCCUUUACCCUCAGAAUCAACAGCUCGCAGUCAAG,-0.658
15,GGUCACGUCUCAAUCAACUCACAAGAGGGGGGGAAAACCCCUUUACCCUCCGUUUCAACAGCUCGCAGUCAAG,-0.367
16,GGUCACGUCUCAAUCAACUCUUCCCCCAGGGAAAGCCCUGGCUAAUUCAACAGCUCGCAGUCAAG,0.168
17,GGUCACGUCUCAAUCAACUCAUUCGAGGGGGGGAAAACCCCUUUACCCUCACUAUCAACAGCUCGCAGUCAAG,-0.285
18,GGUCACGUCUCAAUCAACUCAUAAGAGGGGGGGAAAACCCCUUUACCCUCCGUAUCAACAGCUCGCAGUCAAG,-0.537
19,GGUCACGUCUCAAUCAACUCAUUUCCCAGGGAAAACCCUGGCAUUUUCAACAGCUCGCAGUCAAG,0.0753
20,GGUCACGUCUCAAUCAACUCAUCCCCCAGGGAAAACCCUGGUAAACUCAACAGCUCGCAGUCAAG,0.0142
21,GGUCACGUCUCAAUCAACUCAUGUCCAGGAGUUUACUCCUGUUAUUUCAACAGCUCGCAGUCAAG,0.00321
22,GGUCACGUCUCAAUCAACUCAGUUCCCAGGGAAAACCCUGGCAUAUUCAACAGCUCGCAGUCAAG,0.138
23,GGUCACGUCUCAAUCAACUCCCCAGAGGGGGGGAAAACCCCUUUGCCCUCAACAUCAACAGCUCGCAGUCAAG,-0.109

# Source: publication PMC5892938
